Among all 410,000 compounds or so, about 5,000 (1.2%) were called active. Inconclusive means that the source gave no clear call. Such entries were picked first, then a sample of the others. Calls follow the shape of the dose curve; as a rule, active = well fitted inhibition curve with a large enough effect; inconclusive = small, poorly fitted or top-dose-only effect; inactive = no such curve, though single readings can be large or run the other way. Where the call is inconclusive, the potency comes from a doubtful curve fit.
Test: qHTS for Inhibitors of TGF-b; also: nearly all actives have a fitted effect of over 65% in size
Conditions: HepG2 CAGA-GFP TGF-b/SMAD3 reporter, GFP fluorescence, 18 h, TGF-beta stimulated, 500 pg/mL final; series mostly up to 46.1 µM
Method in brief: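 Inhibition was scored as loss of TGF-beta-induced (500 pg/mL final, 18 hours, 37 degrees C) GFP in HEPG2 cells carrying a CAGA-GFP reporter, in DMEM with 1% FBS. Well GFP was summed per cell; Activity was normalised to unstimulated and stimulated DMSO wells, then concentration-response fitting.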
Potency is read from the fitted curve at half-maximal effect; tags tell the direction and shape of the fitted curve.

SMILES | Potency
CCOc1ccccc1Nc1sc(C(=O)c2ccc(Cl)cc2)c(N)c1S(=O)(=O)c1ccccc1 | inactive
Cc1ccccc1NC(=O)C(=Cc1ccc(C(=O)O)cc1)C(=O)Nc1ccccc1C | inconclusive: 11.2 µM [inhibitor, partial curve, poor fit]
COc1ccc(N2Cc3ccc(OC)c(OC)c3C2=O)cc1 | inactive
CCC(C)Nc1nc2c(c(=O)n(C)c(=O)n2C)n1Cc1ccc(F)cc1 (stereo not drawn) | inconclusive: 28.2 µM [inhibitor, single point]
Cc1cccc(NCCC(=O)c2ccc(Br)cc2)c1 | inactive
Fc1cccc(Nc2cc(-n3cccn3)ncn2)c1 | inactive
OCCNCc1cc(Br)ccc1OCc1ccc(Cl)cc1Cl | inconclusive: 35.5 µM [inhibitor, single point]
CC1CC(C)CN(C(=O)c2ccc(CSc3nc4ccncc4[nH]3)cc2)C1 (stereo not drawn) | inactive
CC1CCc2c(sc3nc(CN4CCOCC4)nc(N4CCc5ccccc5C4)c23)C1 (stereo not drawn) | inconclusive: 35.5 µM [inhibitor, single point]
COc1cc(-c2cc(NC(C)=O)c3ncc(-c4ccc(C(C)=O)cc4)n3c2)cc(OC)c1OC | inconclusive: 22.4 µM [inhibitor, single point]
CN(Cc1nc(-c2cnccn2)no1)Cc1cccc2ccccc12 | inactive
CN(CC(=O)NCCc1ccc(S(N)(=O)=O)cc1)Cc1ccc(Cl)cc1Cl | inconclusive: 20 µM [inhibitor, single point]
Cc1ccc(NC(=O)Cn2c(=O)n(CCCCC(=O)NCc3ccc4c(c3)OCO4)c(=O)c3ccccc32)cc1 | inactive
COc1ccc(CN2CCN(Cc3ccc4cc(F)ccc4n3)CC2CCO)c(C)c1C (stereo not drawn) | inconclusive: 22.4 µM [inhibitor, single point]
O=C(NCc1ccncc1)C1CCCN1S(=O)(=O)c1ccc(Cl)cc1 (stereo not drawn) | inactive
CCOC(=O)CC1(NC(=O)c2cc(COc3cccc(OC)c3)on2)CCCCC1 | inconclusive: 12.6 µM [inhibitor, single point]
COC(=O)c1cc2sccc2n1CC(=O)Nc1cc(Cl)ccc1OC | inconclusive: 35.5 µM [inhibitor, single point]
CC(NCc1ccccc1OC1CCCC1)c1ccccc1 (stereo not drawn) | inconclusive: 35.5 µM [inhibitor, single point]
CCN(C(=O)CCc1nc(-c2ccc(OC)cc2)no1)c1cc(OC)ccc1OC | inconclusive: 35.5 µM [inhibitor, single point]
COc1ccc(S(=O)(=O)Nc2cccc(C(C)=O)c2)cc1Br | inconclusive: 3.98 µM [inhibitor, full curve]
Cc1ccc2nc3c(c(Nc4cccc(O)c4)c2c1)CCC3 | inconclusive: 12.6 µM [inhibitor, partial curve]
COc1ccc(N2CC(C(=O)Nc3cccnc3)CC2=O)cc1 (stereo not drawn) | inactive
CC(C)c1ccc(C(C)NCCS(=O)(=O)c2ccc(Cl)cc2)cc1 (stereo not drawn) | inconclusive: 14.1 µM [inhibitor, single point]
Cn1c(SCC(=O)Nc2ccc3c(c2)OCCO3)nnc1-c1ccncc1 | inactive
CC(=O)Nc1cc(-c2ccc(CO)cc2)cn2c(-c3ccc(F)c(Cl)c3)cnc12 | inconclusive: 17.8 µM [inhibitor, single point]

SMILES | Potency
Cc1ccc(-c2nc(CS(=O)CC(=O)NCCc3ccc(Cl)cc3)c(C)o2)cc1 (stereo not drawn) | inconclusive: 12.6 µM [inhibitor, partial curve]
CCN(CC)C1Oc2cc3c(cc2C(c2cccc(OC)c2O)C1C)OCO3 (stereo not drawn) | inconclusive: 10 µM [inhibitor, partial curve]
CN(CC1CCCN(CCc2ccccc2F)C1)C(=O)c1cc2ccccc2o1 (stereo not drawn) | inconclusive: 22.4 µM [inhibitor, single point]
NS(=O)(=O)c1ccc(CCNC(=O)c2ccc(OCC3CCCO3)cc2)cc1 (stereo not drawn) | inactive
CCOC(=O)C1(Cc2cccc(OC)c2)CCN(Cc2csc(C(C)=O)c2)CC1 | inconclusive: 20 µM [inhibitor, single point]
CC(C)(C)c1ccc(C(=O)NCC(=O)N2CCCCCC2)cc1 | inactive
CCn1c(/C=C/c2ccccc2F)nc2ccccc2c1=O | inconclusive: 12.6 µM [inhibitor, partial curve, poor fit]
Cc1ccc(C(C)C)c(OCC(=O)NNC(=O)Cn2[nH]c(=O)c3ccccc3c2=O)c1 | inactive
Cc1ccnc(NC(=O)c2cccc(OC(F)F)c2)n1 | inactive
Cc1ccc(Cc2c(-c3cccc(Cl)c3)nc3ccc(C)cn23)cc1 | active: 10 µM
COC(=O)c1ccc2nc(-c3ccco3)c(Cc3ccc(OC)cc3C)n2c1 | active: 12.6 µM
CCOC(=O)C(C)c1nc2ccccc2[nH]c1=O (stereo not drawn) | inconclusive: 4.47 µM [inhibitor, partial curve]
CSc1ccc(/C=C/C(=O)c2ccc(NC(=O)C(C)C)cc2)cc1 | inactive
Cc1ccc(NC(c2nnc(-c3ccccc3)o2)c2ccccc2F)c(Cl)c1 (stereo not drawn) | inconclusive: 22.4 µM [inhibitor, single point]
O=C(CCc1nc2ccccc2c(=O)[nH]1)Nc1cccc(S(=O)(=O)N2CCCCC2)c1 | inactive
Cc1ccc(NC(=O)Cn2ccnc2)cc1C | inactive
CCCCCCCCCCCCCC[N+](C)(C)Cc1ccccc1 | inconclusive: 35.5 µM [inhibitor, single point]
c1ccc(-c2csc(Nc3ccc4c(c3)OCCO4)n2)cc1 | inactive
COc1cc(OC)cc(C(=O)NNC(=S)NC(=O)c2cccnc2)c1 | inactive
COc1ccc(S(=O)(=O)N[C@@H](C)C(=O)OCC(=O)Nc2cc3oc4ccccc4c3cc2OC)cc1 | inactive
Cc1ccc2onc(CNC(=O)N3CCN(c4cccc(C(F)(F)F)c4)CC3)c2c1 | inactive
CCN(CC)S(=O)(=O)c1ccc(N2CCCCS2(=O)=O)cc1 | inactive
CN(C(=O)CSc1nc2ccccc2n1Cc1ccccc1C#N)c1ccccc1 | inconclusive: 31.6 µM [inhibitor, single point]
O=S(=O)(N1CCCCC1)n1c(Cc2ccccc2)nc2ccccc21 | inconclusive: 12.6 µM [inhibitor, single point]
COc1ccc(NC(=O)c2cccc3c(-c4ccc(OC)cc4C)coc23)cc1 | inactive

SMILES | Potency
C/C=C(/C)C(=O)Nc1cccc(C2=NOC3(C2)C[C@@H](C(N)=O)N(C(=O)CC(c2ccccc2)c2ccccc2)C3)c1 (stereo partly drawn) | inconclusive: 35.5 µM [inhibitor, single point]
COc1cccc(NC(=O)CN(C)C(=O)c2ccc(-c3ccc(Cl)cc3)o2)c1 | inconclusive: 15.8 µM [inhibitor, partial curve, poor fit]
CC(C)COCc1ccc(O)c2ncccc12 | active: 10 µM
CCN(CC)S(=O)(=O)c1cc(NC(=O)C(C)N2CCN(Cc3ccc4c(c3)OCO4)CC2)ccc1C (stereo not drawn) | inconclusive: 10 µM [inhibitor, partial curve, poor fit]
Cn1c(NC(=O)c2cccs2)cc(=O)n(C)c1=O | inconclusive: 25.1 µM [inhibitor, single point]
Cc1ccc(S(=O)(=O)C(CNC(=O)C(=O)NCc2ccc(Cl)cc2)c2ccco2)cc1 (stereo not drawn) | inactive
COc1cccc(NC(=S)Nc2ccc(Br)cc2Cl)c1 | inactive
O=C(CN1C(=O)NC(c2ccccc2)(c2ccccc2)C1=O)N1CCN(c2ccccc2F)CC1 | inconclusive: 25.1 µM [inhibitor, single point]
CC(=NNC(=O)c1cccc(S(=O)(=O)N2CCCC2)c1)c1ccccc1 | inconclusive: 22.4 µM [inhibitor, partial curve, poor fit]
COC(=O)N/N=C1\CCCc2c(C)cc(C)cc21 | inactive
CCOc1ccc(CNCc2c(C(=O)O)n(Cc3ccccc3C)c3cc(OC)ccc23)cc1OC | inconclusive: 14.1 µM [inhibitor, partial curve]
CCCNS(=O)(=O)c1cccc(C(=O)NC2CCCc3ccccc32)c1 (stereo not drawn) | inactive
CC1=C(C)CC2(SC1)C(=O)N(c1ccccc1)N=C2N (stereo not drawn) | inactive
N#CC1=C(N)Oc2n[nH]c(-c3ccccc3)c2C1c1ccsc1 (stereo not drawn) | inactive
CC(Oc1ccc(F)cc1)C(=O)Nc1ccccc1N1CCCCC1 (stereo not drawn) | inconclusive: 35.5 µM [inhibitor, single point]
Cc1cc(C(=O)OCC(=O)NC(C)C)c2ccccc2n1 | inconclusive: 6.31 µM [inhibitor, single point]
N#Cc1nc(-c2ccccc2F)oc1NCc1ccccc1 | inconclusive: 15.8 µM [inhibitor, single point]
CCC(C(=O)NC1CCCCC1)n1c(SCc2cccc(F)c2)nc2ccncc21 (stereo not drawn) | inconclusive: 25.1 µM [inhibitor, partial curve, poor fit]
Cc1ccc(S(=O)(=O)C(CNS(=O)(=O)c2ccc(F)c(C(F)(F)F)c2)c2ccco2)cc1 (stereo not drawn) | inconclusive: 10 µM [inhibitor, partial curve, poor fit]
Cn1c(=O)c2cc(NC(=O)CCc3ccccc3)ccc2n1-c1ccccc1F | inconclusive: 35.5 µM [inhibitor, partial curve, poor fit]
CC(=O)N(/N=C1\Sc2ccccc2C1=O)c1cccc(C)c1 | inconclusive: 35.5 µM [inhibitor, single point]
COc1cccc(OCC(=O)NNC(=O)C(=O)N2CCCC2)c1 | inconclusive: 6.31 µM [inhibitor, single point]
O=[N+]([O-])c1c(Nc2ccccc2O)cc(N2CCOCC2)c2nonc12 | inconclusive: 14.1 µM [inhibitor, single point]

Reference: PubChem BioAssay AID588855 (National Center for Advancing Translational Sciences (NCATS), 2011)
